What is called IC50 is the concentration needed to halve the response being measured. A lower IC50 goes with higher potency. Broadly, the Kd is the constant that tells how readily two partners part at equilibrium. Read a low Kd as tighter binding. As a reminder, the koff is the rate constant with which the complex falls apart. Low values mean slow dissociation, high ones fast dissociation. What is called kon is the rate constant with which the complex forms. A higher kon goes with faster complex formation. Broadly, the EC50 is the concentration that produces a half-maximal response. Read a low EC50 as higher potency in that assay.

These results are taken from patent publication US20240262915A1 (NANJING SANHOME PHARMACEUTICAL, published 2024).

The target in experiment [1] is T1, TIGIT-mFc (extracellular region of human TIGIT with mIgG1-Fc tag) (human).
T1 construct: A bought TIGIT-mFc (Acro Biosystems TIT-H5253) is used for immunization; also called recombinant humanized TIGIT-mFc
T1 chain: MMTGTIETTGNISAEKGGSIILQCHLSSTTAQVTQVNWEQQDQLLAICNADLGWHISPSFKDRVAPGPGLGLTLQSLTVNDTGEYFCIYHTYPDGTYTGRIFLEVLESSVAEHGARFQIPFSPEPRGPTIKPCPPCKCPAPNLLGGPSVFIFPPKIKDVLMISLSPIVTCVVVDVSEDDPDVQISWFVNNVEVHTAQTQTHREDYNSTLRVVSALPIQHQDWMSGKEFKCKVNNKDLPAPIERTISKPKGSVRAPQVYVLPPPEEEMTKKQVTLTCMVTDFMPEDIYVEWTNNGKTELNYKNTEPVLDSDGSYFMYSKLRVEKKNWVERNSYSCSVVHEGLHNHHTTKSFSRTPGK
Nature of the experiment: FACS, blocking of TIGIT-mFc binding to cells (TIGIT/CD155; cells printed as hTIGIT-CHO-K1).

Experiment [2] addresses T2, TIGIT-his (extracellular region of human TIGIT protein fused with his) (human, UniProt Q495A1 22-141).
T2 construct: also called antigen TIGIT-his
T2 sequence: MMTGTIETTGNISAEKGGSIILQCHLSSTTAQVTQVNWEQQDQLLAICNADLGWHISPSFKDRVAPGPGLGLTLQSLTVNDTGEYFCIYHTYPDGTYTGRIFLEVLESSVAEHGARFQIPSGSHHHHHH
Nature of the experiment: BLI, Fortebio Octet RED96, antibody on AHC sensor, TIGIT-his in solution. In general terms: BLI is a label-free optical method that tracks binding on a fibre tip over time.

The target in experiment [3] is T3, human PD-L1 on hPD-L1-CHO-K1 cells (human, UniProt Q9NZQ7).
T3 construct: whole, on cells; The making of this cell line is not described
Nature of the experiment: FACS, blocking of PD-1-mFc binding to hPD-L1-CHO-K1 cells (competitor PD-1-mFc).

Another experiment deals with T4, PD-L1-his (human, UniProt Q9NZQ7 part only, limits assumed).
T4 construct: also called human PD-L1 protein
Briefly: BLI, Fortebio Octet RED96, antibody on AHC sensor, PD-L1-his in solution.

For experiment [4], the target named is T3, human PD-L1 on hPD-L1-CHO-K1 cells. Nature of the experiment: FACS on hPD-L1-CHO-K1 cells.
Experiment [5] concerns the target T5, full-length TIGIT on hTIGIT-CHO-K1 cells (human, UniProt Q495A1 22-244).
T5 construct: CHO-K1 cells stably transfected with pTargeT-TIGIT; also called TIGIT on cell surface
T5 sequence: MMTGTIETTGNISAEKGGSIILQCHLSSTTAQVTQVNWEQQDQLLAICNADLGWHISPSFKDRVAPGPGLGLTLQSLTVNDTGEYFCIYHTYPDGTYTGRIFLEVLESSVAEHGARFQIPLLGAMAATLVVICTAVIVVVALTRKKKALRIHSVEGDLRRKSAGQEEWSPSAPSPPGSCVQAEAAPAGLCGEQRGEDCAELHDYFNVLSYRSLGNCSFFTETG
Briefly: FACS on hTIGIT-CHO-K1 cells.

Chain of PD-L1-his (Q9NZQ7 19-238 limits assumed): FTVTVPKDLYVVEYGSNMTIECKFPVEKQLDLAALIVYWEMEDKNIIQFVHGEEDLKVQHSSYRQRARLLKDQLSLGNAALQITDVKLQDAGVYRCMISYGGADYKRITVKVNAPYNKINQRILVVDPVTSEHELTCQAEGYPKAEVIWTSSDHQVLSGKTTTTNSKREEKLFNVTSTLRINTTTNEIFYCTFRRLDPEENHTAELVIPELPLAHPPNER
T3 sequence (Q9NZQ7 19-290): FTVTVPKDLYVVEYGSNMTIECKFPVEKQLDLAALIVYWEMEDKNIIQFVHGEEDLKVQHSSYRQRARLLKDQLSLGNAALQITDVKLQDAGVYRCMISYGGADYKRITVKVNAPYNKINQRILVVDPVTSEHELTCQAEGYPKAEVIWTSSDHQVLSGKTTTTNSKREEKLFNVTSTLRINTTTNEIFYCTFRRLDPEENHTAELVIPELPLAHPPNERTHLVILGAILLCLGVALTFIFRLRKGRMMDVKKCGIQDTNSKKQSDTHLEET

B1: HuPL721-T2353-ScFv (bispecific antibody, human IgG4, kappa)
heavy: QVQLQESGPGLVKPSQTLSLTCTVSGDSITSGYWNWIRQHPGKGLEYIGYISYTGSTYYNLSLKSRVTISRDTSKNQFSLKLSSVTAADTAVYYCARYILWLRHFDYWGQGTLVTVSSASTKGPSVFPLAPCSRSTSESTAALGCLVKDYFPEPVTVSWNSGALTSGVHTFPAVLQSSGLYSLSSVVTVPSSSLGTKTYTCNVDHKPSNTKVDKRV[gap - human IgG4 Fc with changes]GGGGSGGGGSEVQLVESGGGLVQPGGSLRLSCAASGFTFSDHWMSWVRQAPGKCMEWIGNIQYDGSYTNYAPSLKNRFTISRDNAKNSLYLQMNSLRAEDTATYYCTRGHFRITMASMGASASVYWGQGTMVTVSSGGGGSGGGGSGGGGSGGGGSDIQMTQSPSSLSASVGDRVTITCRTSQDIGNSLRWFQQKPGKAPKLLIHGATNLANGVPSRFSGSGSGTDFTLTISSLQPEDFATYYCLQHNEYPLTFGCGTKLEIK
light: DIVMTQSPDSLAVSLGERATISCKSSQSLLYSSNQKNSLAWYQQKPGQPPKLLIYWASTRESGVPDRFSGSGSGTDFTLTISSLQAEDVAVYYCQQYYGYPLTFGGGTKLEIKRTVAAPSVFIFPPSDEQLKSGTASVVCLLNNFYPREAKVQWKVDNALQSGNSQESVTEQDSKDSTYSLSSTLTLSKADYEKHKVYACEVTHQGLSSPVTKSFNRGEC
Consider B1, for which the IC50 in experiment [1] was determined as 2.13 nM; in experiment [3], 3.34 nM. Also, the dissociation constant (Kd) came to 2.49 nM in experiment [2] and 2.67 nM with PD-L1-his. The koff was 0.00248 s⁻¹ in experiment [2] and 0.000472 s⁻¹ with PD-L1-his. Further, the kon is 996000 M⁻¹ s⁻¹ in experiment [2] and 177000 M⁻¹ s⁻¹ with PD-L1-his. Further, the EC50 was 0.715 nM in experiment [4] and 0.612 nM in experiment [5].

B2: HuPL743-T2353-ScFv (bispecific antibody, human IgG4, kappa)
heavy: QVQLQESGPGLVKPSQTLSLTCTVSGDSITSGYWNWIRQHPGKGLEYMGYISYTGSTYYNLSLKSRITISRDTSKNQYSLKLSSVTAADTAVYYCARYILWLRHFDYWGQGTLLTVSSASTKGPSVFPLAPCSRSTSESTAALGCLVKDYFPEPVTVSWNSGALTSGVHTFPAVLQSSGLYSLSSVVTVPSSSLGTKTYTCNVDHKPSNTKVDKRV[gap - human IgG4 Fc with changes]GGGGSGGGGSEVQLVESGGGLVQPGGSLRLSCAASGFTFSDHWMSWVRQAPGKCMEWIGNIQYDGSYTNYAPSLKNRFTISRDNAKNSLYLQMNSLRAEDTATYYCTRGHFRITMASMGASASVYWGQGTMVTVSSGGGGSGGGGSGGGGSGGGGSDIQMTQSPSSLSASVGDRVTITCRTSQDIGNSLRWFQQKPGKAPKLLIHGATNLANGVPSRFSGSGSGTDFTLTISSLQPEDFATYYCLQHNEYPLTFGCGTKLEIK
light: DIVMTQSPDSLAVSLGERVTMSCKSSQSLLYSSNQKNSLAWYQQKPGQPPKLLIYWASTRESGVPDRFSGSGSGTDFTLTISSVQAEDVAVYYCQQYYGYPLTFGGGTKLEIKRTVAAPSVFIFPPSDEQLKSGTASVVCLLNNFYPREAKVQWKVDNALQSGNSQESVTEQDSKDSTYSLSSTLTLSKADYEKHKVYACEVTHQGLSSPVTKSFNRGEC
For B2, in experiment [4], the EC50 is 0.82 nM.
